{"source": "paper PMC11995724", "about": "“Antibiotic target discovery by integrated phenotypic and activity-based profiling of electrophilic fragments” (Cell chemical biology, 2025)", "note": "Out of some 3,200 compounds screened, about 75 (2%) showed an effect of 50% or more. The list shows a part of the results."}
{"tested_on": "T1, S. aureus MSSA476", "T1 construct": "MSSA476", "parameters": "species or system S. aureus MSSA476 (TSB) or V. cholerae SAD30 (LB); 384-well bacterial growth screen at 25 uM, OD600 relative to DMSO control", "details": "relative growth, OD600, TSB; 25 µM; inhibitor", "units": {"% of control remaining": "%"}}
{"smiles": "Cc1cccc(C=C(C#N)C(=O)NC(C)C)c1", "note": "[8-J07, 2-cyano-3-(3-methylphenyl)-N-(propan-2-yl)prop-2-enamide]", "% of control remaining": 108.216}
{"smiles": "C=CC(=O)Nc1cc(C)n(CC(C)c2nnc3n2CCCCC3)n1", "note": "(stereo not drawn) [2-A17, N-[5-methyl-1-(2-{5H,6H,7H,8H,9H-[1,2,4]triazolo[4,3-a]azepin-3-yl}propyl)-1H-pyrazol-3-yl]prop-2-enamide]", "% of control remaining": 146.91}
{"smiles": "Cc1cc(C=C(C#N)C(N)=O)c(C)n1-c1cccc2ccccc12", "note": "[9-I12, 2-cyano-3-[2,5-dimethyl-1-(naphthalen-1-yl)-1H-pyrrol-3-yl]prop-2-enamide]", "% of control remaining": 110.262}
{"smiles": "C=CC(=O)N1CCC(C(=O)N[C@H]2CC[C@@H]2O)(c2ccccc2)CC1", "note": "(racemic) [3-G08, rac-N-[(1R,2R)-2-hydroxycyclobutyl]-4-phenyl-1-(prop-2-enoyl)piperidine-4-carboxamide]", "% of control remaining": 112.843}
{"smiles": "COc1cc([N+](=O)[O-])ccc1NC(=O)CCl", "note": "[4-O07, 2-chloro-N-(2-methoxy-4-nitrophenyl)acetamide]", "% of control remaining": 81.9438}
{"smiles": "C=CC(=O)Nc1ccc(-c2noc(C)n2)cc1", "note": "[1-K16, N-[4-(5-methyl-1,2,4-oxadiazol-3-yl)phenyl]prop-2-enamide]", "% of control remaining": 113.231}
{"smiles": "O=C(CCl)NC(c1ccccc1)C1CC1", "note": "(stereo not drawn) [5-L16, 2-chloro-N-[cyclopropyl(phenyl)methyl]acetamide]", "% of control remaining": 94.3534}
{"smiles": "C=CC(=O)NC1(c2ccc(C(F)(F)F)cc2)CCCC1", "note": "[2-E04, N-{1-[4-(trifluoromethyl)phenyl]cyclopentyl}prop-2-enamide]", "% of control remaining": 93.2985}
{"smiles": "COc1ccc(NC(=O)C(C#N)=Cc2c(Cl)nc3ccccn23)cc1", "note": "[9-G09, 3-{2-chloroimidazo[1,2-a]pyridin-3-yl}-2-cyano-N-(4-methoxyphenyl)prop-2-enamide]", "% of control remaining": 101.273}
{"smiles": "COc1ccc(C=C(C#N)C(=O)Nc2ccccc2)cc1", "note": "[8-A05, 2-cyano-3-(4-methoxyphenyl)-N-phenylprop-2-enamide]", "% of control remaining": 112.863}
{"smiles": "O=C(CCl)COc1ccc(Cl)cc1", "note": "[10-M17, 1-chloro-3-(4-chlorophenoxy)propan-2-one]", "% of control remaining": 105.938}
{"smiles": "C=CC(=O)N1CCOC(c2cccc(OC)c2)C1", "note": "(stereo not drawn) [3-E09, 1-[2-(3-methoxyphenyl)morpholin-4-yl]prop-2-en-1-one]", "% of control remaining": 102.743}
{"smiles": "Cc1[nH]c2ccccc2c1C=C(C#N)C(=O)NCc1ccccc1", "note": "[8-D16, N-benzyl-2-cyano-3-(2-methyl-1H-indol-3-yl)prop-2-enamide]", "% of control remaining": 104.564}
{"smiles": "CC(C)CN(C(=O)CCl)C1CC1", "note": "[5-D14, 2-chloro-N-cyclopropyl-N-(2-methylpropyl)acetamide]", "% of control remaining": 116.94}
{"smiles": "N#CC(=Cc1ccc2c(c1)OCCO2)C(=O)Nc1nccs1", "note": "[8-B03, 2-cyano-3-(2,3-dihydro-1,4-benzodioxin-6-yl)-N-(1,3-thiazol-2-yl)prop-2-enamide]", "% of control remaining": 113.527}
{"smiles": "O=C(CCl)Nc1ccc(SC(F)F)cc1", "note": "[4-B10, 2-chloro-N-{4-[(difluoromethyl)sulfanyl]phenyl}acetamide]", "% of control remaining": 108.623}
{"smiles": "O=C(CCl)N[C@H]1C[C@H](c2ccccc2)C1", "note": "[7-D12, 2-chloro-N-[(1r,3r)-3-phenylcyclobutyl]acetamide]", "% of control remaining": 107.692}
{"smiles": "COC(=O)c1cccc(C(=O)CCl)c1", "note": "[10-I11, methyl 3-(2-chloroacetyl)benzoate]", "% of control remaining": 61.5625}
{"smiles": "O=C1C=CC(=O)N1CCc1ccccc1", "note": "[10-E20, 1-(2-phenylethyl)-2,5-dihydro-1H-pyrrole-2,5-dione]", "% of control remaining": 58.4375}
{"smiles": "NC(=O)CCc1ccc(C(=O)CCl)cc1", "note": "[10-I03, 3-[4-(2-chloroacetyl)phenyl]propanamide]", "% of control remaining": 108.125}
{"smiles": "C=CC(=O)N1CCCN(C(=O)c2ccc(OC)cc2)CC1", "note": "[3-A21, 1-[4-(4-methoxybenzoyl)-1,4-diazepan-1-yl]prop-2-en-1-one]", "% of control remaining": 128.864}
{"smiles": "C=CC(=O)Nc1cnn(-c2ccccc2C)c1C(F)F", "note": "[1-E22, N-[5-(difluoromethyl)-1-(2-methylphenyl)-1H-pyrazol-4-yl]prop-2-enamide]", "% of control remaining": 86.5055}
{"smiles": "C=CC(=O)N(Cc1cccc(Cl)c1F)C(C)C1CCOCC1", "note": "(stereo not drawn) [1-F04, N-[(3-chloro-2-fluorophenyl)methyl]-N-[1-(oxan-4-yl)ethyl]prop-2-enamide]", "% of control remaining": 86.8571}
{"smiles": "C=CC(=O)N1CCN(C(=O)c2cc(C)no2)CC1", "note": "[1-N19, 1-[4-(3-methyl-1,2-oxazole-5-carbonyl)piperazin-1-yl]prop-2-en-1-one]", "% of control remaining": 125.538}
{"smiles": "C=CC(=O)N1CCC(C(=O)NC(C)(C)c2ccc(F)c(F)c2)CC1", "note": "[1-L04, N-[2-(3,4-difluorophenyl)propan-2-yl]-1-(prop-2-enoyl)piperidine-4-carboxamide]", "% of control remaining": 119.912}
{"smiles": "CS(=O)(=O)c1ccc(CNC(=O)CCl)cc1", "note": "[6-O12, 2-chloro-N-[(4-methanesulfonylphenyl)methyl]acetamide]", "% of control remaining": 89.8049}
{"smiles": "O=C(CCl)NCc1coc(Cl)n1", "note": "[6-B04, 2-chloro-N-[(2-chloro-1,3-oxazol-4-yl)methyl]acetamide]", "% of control remaining": 94.5854}
{"smiles": "CC(Cl)C(=O)N(C)CCOc1ccc(Cl)cc1", "note": "(stereo not drawn) [6-C12, 2-chloro-N-[2-(4-chlorophenoxy)ethyl]-N-methylpropanamide]", "% of control remaining": 89.122}
{"smiles": "O=C(CCl)Nc1cccc(Oc2ccccc2)c1", "note": "[4-P19, 2-chloro-N-(3-phenoxyphenyl)acetamide]", "% of control remaining": 90.7099}
{"smiles": "C=CC(=O)NCc1cnoc1C", "note": "[3-C22, N-[(5-methyl-1,2-oxazol-4-yl)methyl]prop-2-enamide]", "% of control remaining": 129.212}
